In one test the target is T1, IL-2 (P).
T1 construct: bought; also called IL-2 produced by Peprotech; commercially available IL-2
The experiment in a line: SPR (Biacore T-100), receptor-Fc captured by anti-human Fc, IL-2 as analyte, 1:1 binding model.

For a further test, the target named is T2, Wild-type IL-2 (human).
T2 construct: also called wild-type mature human IL-2
The description is as above.

Our source for the Kd values is patent publication US20210060169A1 (Kyowa Kirin, published 2021).

B1: human CD122 ECD-Fc-Avitag-8His / human CD132 ECD-Fc-FLAG (Fc fusion)
chain: not shown
notes: in the assay a heterodimer of the two chains; also called hIL-2RβγECD-Fc; IL-2Rβγ ECD-Fc
As a reminder, the Kd is the equilibrium constant for the complex coming apart. In the case of B1, the Kd with IL-2 (P) worked out at 0.209 nM; with Wild-type IL-2 it was 0.215 nM.
